In the supplement of paper PMC6531468:
Some of the results follow. Values come from read counts of a selection and are noisy. Scores sum up all selected molecules that hold the word; the word was not tested alone.

What was measured:
Assay in all cases: 6-mer SELEX enrichment z-score vs GST control; IMP3 is the RNA-binding protein IGF2BP3; higher = more enriched by binding
[1] = system: IMP3 KH1-4; conditions: construct: KH1-4 (164-579); SELEX round: R4
Description: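 SELEX-seq with GST-tagged IMP3 KH1-4 (Pro164-Lys579) and an N40 RNA pool, round 4. 6-mer z-score of sequence-tag enrichment normalised to the corresponding GST SELEX round; RNA k-mers written as DNA (T for U).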

[2] = system: IMP3 RRM1-2; conditions: construct: RRM1-2 (1-163); SELEX round: R2
Description: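 SELEX-seq with GST-tagged IMP3 RRM1-2 (Met1-Asn163) and an N40 RNA pool, round 2. 6-mer enrichment z-score normalised to GST SELEX. RNA written as DNA (T = U).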

[3] = target: IMP3 full-length (UniProt O00425); conditions: construct: FL IMP3 (1-579); SELEX round: R4
Description: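 SELEX-seq with GST-tagged full-length IMP3 and an N40 RNA pool, round 4. Each 6-mer is scored as an enrichment z-score of sequence tags containing it, normalised to the matching GST SELEX round. RNA written as DNA (T = U).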

[4] = system: IMP3 KH1-2; conditions: construct: KH1-2 (164-376); SELEX round: R4
Description: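 SELEX-seq with GST-tagged IMP3 KH1-2 (Pro164-Phe376) and an N40 RNA pool, round 4 (stringent 300/600 mM KCl washes). 6-mer z-score of sequence-tag enrichment normalised to the corresponding GST SELEX round; RNA k-mers written as DNA (T for U).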

[5] = system: IMP3 KH3-4; conditions: construct: KH3-4 (377-579); SELEX round: R4
Description: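 SELEX-seq with GST-tagged IMP3 KH3-4 (Pro377-Lys579) and an N40 RNA pool, round 4. 6-mer z-score of sequence-tag enrichment normalised to the corresponding GST SELEX round; RNA k-mers written as DNA (T for U).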

Sequence of IMP3 KH1-2 (chain, as listed by the source): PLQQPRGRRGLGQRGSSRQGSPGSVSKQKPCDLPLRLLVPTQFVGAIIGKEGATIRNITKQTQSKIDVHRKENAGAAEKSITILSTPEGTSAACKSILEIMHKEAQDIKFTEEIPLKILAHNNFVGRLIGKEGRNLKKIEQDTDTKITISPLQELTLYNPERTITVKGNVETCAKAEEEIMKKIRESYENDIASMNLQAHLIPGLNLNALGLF
Sequence of IMP3 RRM1-2 (chain, as listed by the source): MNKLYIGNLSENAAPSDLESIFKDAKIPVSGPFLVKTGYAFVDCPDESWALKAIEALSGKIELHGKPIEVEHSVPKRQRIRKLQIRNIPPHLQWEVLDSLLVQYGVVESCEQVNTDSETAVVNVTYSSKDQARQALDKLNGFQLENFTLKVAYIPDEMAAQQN
Sequence of UniProt O00425 (O00425 whole entry): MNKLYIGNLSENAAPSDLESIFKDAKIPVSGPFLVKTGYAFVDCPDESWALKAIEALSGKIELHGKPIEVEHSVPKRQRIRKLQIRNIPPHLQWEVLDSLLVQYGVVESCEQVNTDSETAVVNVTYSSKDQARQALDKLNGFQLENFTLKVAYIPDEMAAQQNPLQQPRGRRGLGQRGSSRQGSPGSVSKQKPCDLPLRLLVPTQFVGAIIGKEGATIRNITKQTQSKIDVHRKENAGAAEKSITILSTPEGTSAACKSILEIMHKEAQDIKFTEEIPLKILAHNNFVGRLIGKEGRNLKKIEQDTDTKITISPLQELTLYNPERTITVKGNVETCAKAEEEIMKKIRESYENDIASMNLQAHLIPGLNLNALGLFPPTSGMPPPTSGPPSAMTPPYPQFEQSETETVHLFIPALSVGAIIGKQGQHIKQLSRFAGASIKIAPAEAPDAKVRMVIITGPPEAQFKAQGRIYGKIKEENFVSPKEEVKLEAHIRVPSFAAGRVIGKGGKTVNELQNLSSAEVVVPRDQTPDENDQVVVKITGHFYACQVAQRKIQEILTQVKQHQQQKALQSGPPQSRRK
Sequence of IMP3 KH1-4 (chain, as listed by the source): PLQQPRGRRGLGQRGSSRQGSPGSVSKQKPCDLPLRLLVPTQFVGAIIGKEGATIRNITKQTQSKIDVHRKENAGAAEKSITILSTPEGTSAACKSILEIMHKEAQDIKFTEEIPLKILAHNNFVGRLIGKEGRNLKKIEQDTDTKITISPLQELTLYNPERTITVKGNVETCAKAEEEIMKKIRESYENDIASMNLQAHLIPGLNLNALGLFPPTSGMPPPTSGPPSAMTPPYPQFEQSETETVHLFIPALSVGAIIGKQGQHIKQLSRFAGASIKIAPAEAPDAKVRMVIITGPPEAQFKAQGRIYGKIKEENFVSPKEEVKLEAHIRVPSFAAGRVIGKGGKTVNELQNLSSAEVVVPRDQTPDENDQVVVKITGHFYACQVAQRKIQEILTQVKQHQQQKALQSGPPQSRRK
Sequence of IMP3 KH3-4 (chain, as listed by the source): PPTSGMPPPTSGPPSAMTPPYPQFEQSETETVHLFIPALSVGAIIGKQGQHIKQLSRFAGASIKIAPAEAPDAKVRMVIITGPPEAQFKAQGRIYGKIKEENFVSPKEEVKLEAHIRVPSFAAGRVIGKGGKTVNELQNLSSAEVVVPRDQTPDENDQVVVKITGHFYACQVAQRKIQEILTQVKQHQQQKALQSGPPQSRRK

Sequence	6-mer SELEX enrichment z-score [1]	6-mer SELEX enrichment z-score [2]	6-mer SELEX enrichment z-score [3]	6-mer SELEX enrichment z-score [4]	6-mer SELEX enrichment z-score [5]
GCGCGG	-0.112	0.061	0.748	0.055	-0.009
CCGTGT	-0.225	-0.186	-0.1	-0.268	-0.361
TTTTGG	-0.127	0.441	-0.015	-0.042	0.158
CTGGAT	0.329	-0.034	-0.017	0.176	0.326
ATCTCA	-0.086	0.733	0.509	0.053	-0.293
AAACTA	0.569	-1.26	-1.16	0.625	1.31
ACGGAT	0.328	-0.561	-0.01	0.129	0.435
CGAGAA	-1.43	-1.45	-1.1	-1.3	-0.981
GGCAAA	0.921	-0.128	1.08	0.426	1.4
GTGGTT	-0.403	0.504	-0.178	-0.254	-0.086
AGCCTA	-1.02	-0.663	-0.806	-0.906	-0.853
CCTTTG	0.011	-0.084	-0.373	-0.127	-0.216
TCATAT	1.7	1.43	1.41	1.66	1.81
GGCTAT	0.329	0.413	0.436	0.3	0.746
TCTTTT	0.814	0.559	0.459	0.782	0.878
CCCTGC	-1.05	-0.339	-0.751	-0.958	-1.41
GTGAGT	-0.017	-0.073	-0.073	-0.043	0.114
TTTGCT	0.431	0.364	0.067	0.408	0.485
TTAGGG	0.371	0.353	0.229	0.379	0.65
TTATCT	0.518	0.385	0.118	0.438	0.531

Sequence	6-mer SELEX enrichment z-score [1]	6-mer SELEX enrichment z-score [2]	6-mer SELEX enrichment z-score [3]	6-mer SELEX enrichment z-score [4]	6-mer SELEX enrichment z-score [5]
AACATT	1.83	1.79	1.82	1.83	2.11
ATCCGC	-0.019	-0.076	0.027	0.182	-0.628
GAAGTC	0.426	-0.381	0.11	0.174	0.171
AGTAAG	0.384	-0.391	-0.023	0.249	0.539
ATCCTC	0.198	0.152	-0.122	0.179	-0.324
GGTCTC	-0.326	0.518	0.271	-0.121	-0.055
TTTCCG	0.445	0.016	0.012	0.616	0.18
TGACGT	-0.782	-0.356	-0.474	-0.81	-0.617
CCAAGA	-1.81	-1.34	-1.93	-1.78	-1.82
CTTCGT	-0.272	0.307	-0.151	-0.241	-0.191
TTTCCC	0.092	-0.147	-0.563	0.004	-0.325
TTCTGT	0.732	0.416	0.337	0.664	0.549
TTAATG	0.925	-0.238	-0.172	0.643	1.41
AGGTAC	-0.599	0.052	0.092	-0.553	-0.535
AATGGG	0.398	-0.29	-0.077	0.405	0.888
GTTCGG	0.374	0.393	0.683	0.247	0.486
ACGACG	-1.69	-1.01	-0.976	-1.62	-1.77
GTCTGC	-0.025	0.324	0.322	0.022	-0.11
GCTCAA	-0.539	0.23	0.016	-0.472	-0.455
AACTAC	0.411	-0.54	-0.592	0.748	0.339

Sequence	6-mer SELEX enrichment z-score [1]	6-mer SELEX enrichment z-score [2]	6-mer SELEX enrichment z-score [3]	6-mer SELEX enrichment z-score [4]	6-mer SELEX enrichment z-score [5]
GACACA	1.19	2.05	1.87	1.21	0.574
CGCAGC	-0.614	0.16	0.371	-0.491	-0.783
TTGTTA	0.316	0.34	-0.011	0.198	0.41
GAATGA	1.14	-1.5	-0.846	0.553	1.68
AGCCGG	-0.089	-0.401	0.412	0.026	-0.141
TGCCTA	-0.726	-0.177	-0.697	-0.648	-0.671
CCCCCT	0.018	-0.556	-0.768	0.467	-0.621
ACCGTT	-0.196	-0.327	-0.163	-0.102	-0.452
CCTGTC	-0.257	0.04	-0.217	-0.241	-0.637
CCAGAT	0.22	-0.375	-0.158	0.17	0.061
CCCGAG	-2.96	-1.14	-1.7	-2.66	-2.79
TGGGAA	0.235	-0.319	-0.091	0.224	0.346
TTGCCC	-1.01	-0.09	-0.92	-0.865	-1.24
CGGGCC	-1.17	-0.385	0.349	-0.841	-1.04
CAGAAC	0.036	0.16	0.624	0.183	-0.24
AAAATG	-0.035	-2.24	-2.04	-0.353	1.25
TACCTG	-1.31	-0.422	-1.06	-1.16	-1.24
CGAGGC	-0.532	-0.176	0.517	-0.415	-0.398
CGTGCA	0.114	0.137	0.532	0	-0.134
TCTACT	0.427	0.274	0.003	0.367	0.328
